In a collection of fitness landscapes (doi:10.1016/j.celrep.2020.107928):
Over roughly 81,000 sequences, “one-hybrid fitness for binding NBS DNA” has its median near -0.1; the highest 2% begin near 0.36. This is one part of the list.

B1: Caulobacter ParB omega fusion; a variant is named by its letters at X, in order, B8GW30 (parent)
chain: MESVVVGEPGMSEGRRGLGRGLSALLGEVDAAPAQAPGEQLGGSREAPIEILQRNPDQPRRTFREEDLEDLSNSIREKGVLQPILVRPSPDTAGEYQIVAGERAWRAAQRAGLKTVPIMVRELDDLAVLEIGIIENVQRADLNVLEEALSYKVLMEKFERTQENIAQTIGKSXSHVANXMRLLXLPDEVQSYLVSGELTAXHARAIAAAADPVALAKQIIEGGLSVRETEALARKAPNLSAGKSKGGRPPRVKDTDTQALESDLSSVLGLDVSIDHRGSTGTLTITYATLEQLDDLCNRLTRGI

Variants of: B1
Experiment: one-hybrid fitness for binding NBS DNA (the Noc-binding site; scaled: cognate 1, non-cognate 0); higher = stronger binding
Conditions: with NBS DNA site
Procedure, shortened: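 In E. coli USO, a HIS3 reporter with its site placed 19 bp from the promoter was used to select Caulobacter ParB variants randomised at four specificity codons. Growth lasted 48 hours at 37°C on histidine-free M9 containing 0.1 mM IPTG and 5 mM 3-AT. Fitness was taken as the log change in variant-to-wild-type read ratio from Illumina sequencing of pre- and post-selection plasmids, rescaled between the non-cognate and cognate sites.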

WMRS and EGAS cannot be ordered by “one-hybrid fitness for binding NBS DNA” value: at most 0.2 for the first, at most 0.2 for the second.

QQAC and LTYM cannot be ordered by “one-hybrid fitness for binding NBS DNA” value: at most 0.2 for the first, at most 0.2 for the second.

HCSW and PTDS cannot be ordered by “one-hybrid fitness for binding NBS DNA” value: at most 0.2 for the first, at most 0.2 for the second.

First: QSKH
Second: HMYE
The “one-hybrid fitness for binding NBS DNA” value of the first is higher: 0.587 for the first, at most 0.2 for the second.

ATFE and YRWS cannot be ordered by “one-hybrid fitness for binding NBS DNA” value: at most 0.2 for the first, at most 0.2 for the second.

WPET and MHKS cannot be ordered by “one-hybrid fitness for binding NBS DNA” value: at most 0.2 for the first, at most 0.2 for the second.

QYPY and HSTG cannot be ordered by “one-hybrid fitness for binding NBS DNA” value: at most 0.2 for the first, at most 0.2 for the second.

NQTR and IYSA cannot be ordered by “one-hybrid fitness for binding NBS DNA” value: at most 0.2 for the first, at most 0.2 for the second.

HVWS and PKPD cannot be ordered by “one-hybrid fitness for binding NBS DNA” value: at most 0.2 for the first, at most 0.2 for the second.

FCND and AYGK cannot be ordered by “one-hybrid fitness for binding NBS DNA” value: at most 0.2 for the first, at most 0.2 for the second.

SHER and ASST cannot be ordered by “one-hybrid fitness for binding NBS DNA” value: at most 0.2 for the first, at most 0.2 for the second.

KRQK and QAEY cannot be ordered by “one-hybrid fitness for binding NBS DNA” value: at most 0.2 for the first, at most 0.2 for the second.

YTTN and NANR cannot be ordered by “one-hybrid fitness for binding NBS DNA” value: at most 0.2 for the first, at most 0.2 for the second.

YLMC and GPDK cannot be ordered by “one-hybrid fitness for binding NBS DNA” value: at most 0.2 for the first, at most 0.2 for the second.

First: IVCS
Second: RMRS
The “one-hybrid fitness for binding NBS DNA” value of the first is lower: at most 0.2 for the first, 0.642 for the second.

TRGY and FSPC cannot be ordered by “one-hybrid fitness for binding NBS DNA” value: at most 0.2 for the first, at most 0.2 for the second.

VWIS and ECPA cannot be ordered by “one-hybrid fitness for binding NBS DNA” value: at most 0.2 for the first, at most 0.2 for the second.

NAGV and TRYQ cannot be ordered by “one-hybrid fitness for binding NBS DNA” value: at most 0.2 for the first, at most 0.2 for the second.

MYRM and IITW cannot be ordered by “one-hybrid fitness for binding NBS DNA” value: at most 0.2 for the first, at most 0.2 for the second.

VSDA and DTAV cannot be ordered by “one-hybrid fitness for binding NBS DNA” value: at most 0.2 for the first, at most 0.2 for the second.

VPYS and GLMG cannot be ordered by “one-hybrid fitness for binding NBS DNA” value: at most 0.2 for the first, at most 0.2 for the second.

RMYP and HSAG cannot be ordered by “one-hybrid fitness for binding NBS DNA” value: at most 0.2 for the first, at most 0.2 for the second.

HVVD and DVRA cannot be ordered by “one-hybrid fitness for binding NBS DNA” value: at most 0.2 for the first, at most 0.2 for the second.

KLMT and NPDR cannot be ordered by “one-hybrid fitness for binding NBS DNA” value: at most 0.2 for the first, at most 0.2 for the second.

HSPH and THML cannot be ordered by “one-hybrid fitness for binding NBS DNA” value: at most 0.2 for the first, at most 0.2 for the second.

ANGA and TKLI cannot be ordered by “one-hybrid fitness for binding NBS DNA” value: at most 0.2 for the first, at most 0.2 for the second.

VPLS and KRYG cannot be ordered by “one-hybrid fitness for binding NBS DNA” value: at most 0.2 for the first, at most 0.2 for the second.

RHPK and SEHG cannot be ordered by “one-hybrid fitness for binding NBS DNA” value: at most 0.2 for the first, at most 0.2 for the second.

SCWG and HYIY cannot be ordered by “one-hybrid fitness for binding NBS DNA” value: at most 0.2 for the first, at most 0.2 for the second.

FNKL and TNHD cannot be ordered by “one-hybrid fitness for binding NBS DNA” value: at most 0.2 for the first, at most 0.2 for the second.

First: KMNY
Second: RMYR
The “one-hybrid fitness for binding NBS DNA” value of the first is lower: at most 0.2 for the first, 0.424 for the second.

EMIR and HRLD cannot be ordered by “one-hybrid fitness for binding NBS DNA” value: at most 0.2 for the first, at most 0.2 for the second.

RNTH and PFER cannot be ordered by “one-hybrid fitness for binding NBS DNA” value: at most 0.2 for the first, at most 0.2 for the second.

VISK and KKPC cannot be ordered by “one-hybrid fitness for binding NBS DNA” value: at most 0.2 for the first, at most 0.2 for the second.

VIDR and DPQD cannot be ordered by “one-hybrid fitness for binding NBS DNA” value: at most 0.2 for the first, at most 0.2 for the second.

GCST and FPFF cannot be ordered by “one-hybrid fitness for binding NBS DNA” value: at most 0.2 for the first, at most 0.2 for the second.

CFML and TMEG cannot be ordered by “one-hybrid fitness for binding NBS DNA” value: at most 0.2 for the first, at most 0.2 for the second.

TYLT and LPYH cannot be ordered by “one-hybrid fitness for binding NBS DNA” value: at most 0.2 for the first, at most 0.2 for the second.

MFRF and SLHV cannot be ordered by “one-hybrid fitness for binding NBS DNA” value: at most 0.2 for the first, at most 0.2 for the second.

ENIT and LPFG cannot be ordered by “one-hybrid fitness for binding NBS DNA” value: at most 0.2 for the first, at most 0.2 for the second.

GHPS and TISN cannot be ordered by “one-hybrid fitness for binding NBS DNA” value: at most 0.2 for the first, at most 0.2 for the second.

YRTW and GLTL cannot be ordered by “one-hybrid fitness for binding NBS DNA” value: at most 0.2 for the first, at most 0.2 for the second.

Going from IGLT to QQRK, the “one-hybrid fitness for binding NBS DNA” value rises from at most 0.2 to 0.499.

DRNS and IYKI cannot be ordered by “one-hybrid fitness for binding NBS DNA” value: at most 0.2 for the first, at most 0.2 for the second.

MIME and MTII cannot be ordered by “one-hybrid fitness for binding NBS DNA” value: at most 0.2 for the first, at most 0.2 for the second.

First: VRKY
Second: IFLY
The “one-hybrid fitness for binding NBS DNA” value of the first is higher: 0.237 for the first, at most 0.2 for the second.

Going from MDAV to QMIT, the “one-hybrid fitness for binding NBS DNA” value rises from at most 0.2 to 0.402.

PEDC and NIQC cannot be ordered by “one-hybrid fitness for binding NBS DNA” value: at most 0.2 for the first, at most 0.2 for the second.

With LVVD the “one-hybrid fitness for binding NBS DNA” value was at most 0.2.
